Structures can show the parent of a compound that is named as a salt. ± gives the standard deviation of the averaged measurements. The list shows a part of the results.
What was measured:
Details in all cases: priming compound concentration 100 µM
[1] = system: hAMSC donor 1; experiment: Hoechst total cell count ratio vs vehicle control; higher = more cells (less toxicity)
[2] = system: hAMSC donor 2; experiment: as above
[3] = system: hAMSC donor 1; experiment: transgenic luciferase activity (RLU/mg protein) fold change vs vehicle control (ratio); higher = more transgene expression
[4] = system: hAMSC donor 2; experiment: as above
[5] = system: hAMSC donor 1; experiment: transfection efficiency (EGFP+ cells / Hoechst count) fold change vs vehicle control (ratio); hAMSC are human adipose-derived mesenchymal stem cells given an EGFP-luciferase plasmid by lipofection; higher = enhanced transfection
[6] = system: hAMSC donor 2; experiment: as above
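Wherever Hoechst total cell count ratio vs vehicle control is given: compound added 30 min before Lipofectamine 3000 lipoplex delivery, triplicate-well means expressed against DMSO vehicle control wells of the same 96-well plate.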
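Wherever transfection efficiency (EGFP+ cells / Hoechst count) fold change vs vehicle control is given: compounds added 30 min before Lipofectamine 3000 lipoplex transfection, triplicate means relative to DMSO vehicle wells on the same plate, luciferase RLU normalized to BCA total protein.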
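Wherever transgenic luciferase activity (RLU/mg protein) fold change vs vehicle control is given: compounds in DMSO added 30 min before Lipofectamine 3000 transfection of pEGFP-Luc in 96-well plates, values are means of triplicate wells over DMSO vehicle wells on the same plate.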

Row | SMILES | Hoechst total cell count ratio [1] | Hoechst total cell count ratio [2] | transgenic luciferase activity [3] | transgenic luciferase activity [4] | transfection efficiency [5] | transfection efficiency [6]
1 | COc1ccc2c(c1)c(CC(=O)O)c(C)n2C(=O)c1ccc(Cl)cc1 [Indomethacin hydrate] | 1.39 ± 0.1 | 1.21 ± 0.093 | 0.843 ± 0.32 | 0.734 ± 0.14 | 0.813 ± 0.17 | 0.966 ± 0.27
2 | C[C@@H](O)[C@H]1C(=O)N2C(C(=O)O)=C(S[C@@H]3CN[C@H](C(=O)N(C)C)C3)[C@H](C)[C@H]12 [Meropenem] | 1.36 ± 0.27 | 1.26 ± 0.044 | 1.71 ± 0.81 | 0.775 ± 0.026 | 1.16 ± 0.19 | 0.637 ± 0.15
3 | CCOC(=O)C1=C(C)NC(C)=C(C(=O)OC)C1c1cccc(Cl)c1Cl (centres undefined) [Felodipine] | 0.306 ± 0.11 | 0.207 ± 0.0049 | 0.379 ± 0.32 | 0.392 ± 0.21 | 1.34 ± 0.27 | 0.375 ± 0.17
4 | CCN(CC)C(=O)C1(c2ccccc2)CC1CN (centres undefined) [Milnacipran hydrochloride] | 1.21 ± 0.16 | 1.23 ± 0.11 | 0.889 ± 0.83 | 0.649 ± 0.16 | 0.966 ± 0.11 | 0.801 ± 0.093
5 | O=C1CC2(CCCC2)CC(=O)N1CCNCC1COc2ccccc2O1 (centres undefined) | 1.62 ± 0.22 | 1.34 ± 0.3 | 0.396 ± 0.2 | 0.294 ± 0.06 | 0.932 ± 0.11 | 1.07 ± 0.35
6 | CC(C(=O)O)c1ccc(-c2ccccc2)c(F)c1 (centres undefined) [Flurbiprofen] | 1.44 ± 0.052 | 1.44 ± 0.26 | 1.05 ± 0.58 | 1.08 ± 0.13 | 0.798 ± 0.17 | 0.766 ± 0.24
7 | CC[C@@H]1C(=O)OC[C@@H]1Cc1cncn1C [Pilocarpine hydrochloride] | 1.35 ± 0.26 | 1.04 ± 0.054 | 0.594 ± 0.58 | 0.596 ± 0.075 | 1.29 ± 0.18 | 0.82 ± 0.077
8 | CN(Cc1cnc2nc(N)nc(N)c2n1)c1ccc(C(=O)N[C@@H](CCC(=O)O)C(=O)O)cc1 [Methotrexate trihydrate] | 1.16 ± 0.25 | 1.11 ± 0.18 | 0.548 ± 0.24 | 0.193 ± 0.079 | 1.21 ± 0.36 | 1.04 ± 0.23
9 | CCOC(=O)C1=C(C)NC(C)=C(C(=O)OC)C1c1cccc([N+](=O)[O-])c1 (centres undefined) [Nitrendipine] | 0.624 ± 0.079 | 0.731 ± 0.17 | 2.06 ± 0.8 | 0.681 ± 0.51 | 2.13 ± 0.19 | 0.899 ± 0.24
10 | CC1(C)S[C@@H]2[C@H](NC(=O)[C@H](N)c3ccccc3)C(=O)N2[C@H]1C(=O)O [Ampicillin sodium] | 1.15 ± 0.16 | 1.44 ± 0.31 | 1.24 ± 0.55 | 0.875 ± 0.18 | 0.982 ± 0.26 | 0.973 ± 0.081
11 | CN(C)CCC(c1ccc(Cl)cc1)c1ccccn1 (centres undefined) [Chlorpheniramine maleate] | 1.28 ± 0.065 | 1.237 ± 0.011 | 0.357 ± 0.017 | 0.286 ± 0.1 | 0.778 ± 0.018 | 0.712 ± 0.17
12 | CN[C@@H]1[C@H](O)[C@H](NC)[C@H]2O[C@@]3(O)C(=O)C[C@@H](C)O[C@H]3O[C@@H]2[C@H]1O [Spectinomycin] | 1.39 ± 0.051 | 1.11 ± 0.089 | 0.857 ± 0.19 | 0.675 ± 0.14 | 1.25 ± 0.22 | 0.881 ± 0.082
13 | CNC(=N)NCCC[C@H](N)C(=O)O [L-NMMA acetate] | 1.12 ± 0.12 | 1.02 ± 0.047 | 0.754 ± 0.3 | 1.04 ± 0.88 | 1.23 ± 0.15 | 1.08 ± 0.12
14 | CC(=O)Nc1nnc(S(N)(=O)=O)s1 [Acetazolamide] | 1.48 ± 0.047 | 1.15 ± 0.046 | 0.623 ± 0.34 | 0.381 ± 0.028 | 0.852 ± 0.1 | 1.22 ± 0.35
15 | COc1ccc(C(=O)NCc2ccc(OCCN(C)C)cc2)cc1OC [Itopride hydrochloride] | 1.88 ± 0.4 | 1.02 ± 0.083 | 0.935 ± 0.24 | 0.836 ± 0.042 | 0.975 ± 0.16 | 1.19 ± 0.19
16 | COc1cc2nc(N3CCN(C(=O)c4ccco4)CC3)nc(N)c2cc1OC [Prazosin hydrochloride hydrate] | 0.538 ± 0.054 | 0.289 ± 0.026 | 0.293 ± 0.12 | 0.631 ± 0.38 | 0.873 ± 0.17 | 1.08 ± 0.26
17 | O=[N+]([O-])c1cccc2cn[nH]c12 [7-Nitroindazole] | 1.18 ± 0.08 | 1.18 ± 0.075 | 1.29 ± 1.6 | 1.02 ± 0.27 | 0.827 ± 0.12 | 0.732 ± 0.11
18 | CCOC(=O)[C@H](CCc1ccccc1)N[C@@H](C)C(=O)N1Cc2ccccc2C[C@H]1C(=O)O [Quinapril hydrochloride] | 1.38 ± 0.21 | 1.13 ± 0.14 | 1.5 ± 0.46 | 0.318 ± 0.11 | 0.783 ± 0.21 | 1.14 ± 0.25
19 | CN1C(=O)CC[C@H]1c1cccnc1 [(-)-Cotinine] | 1.32 ± 0.039 | 1.43 ± 0.19 | 0.961 ± 0.28 | 1.61 ± 0.28 | 0.948 ± 0.24 | 0.925 ± 0.28
20 | CNNCc1ccc(C(=O)NC(C)C)cc1 [Procarbazine hydrochloride] | 1.33 ± 0.29 | 1.25 ± 0.079 | 1.24 ± 0.31 | 0.678 ± 0.066 | 1.14 ± 0.12 | 0.726 ± 0.057
21 | Cc1[nH]c(=O)c(C#N)cc1-c1ccncc1 [Milrinone] | 1.48 ± 0.24 | 1.34 ± 0.057 | 0.506 ± 0.15 | 0.633 ± 0.12 | 1.2 ± 0.085 | 0.902 ± 0.027
22 | CC(=O)NC[C@H]1CN(c2ccc(N3CCOCC3)c(F)c2)C(=O)O1 [Linezolid] | 1.47 ± 0.1 | 1.27 ± 0.014 | 5.83 ± 0.91 | 5.27 ± 1.5 | 2.92 ± 0.62 | 1.49 ± 0.19
23 | Oc1c(Cl)cc(Cl)c(Cl)c1Cc1c(O)c(Cl)cc(Cl)c1Cl [Hexachlorophene] | 1.57 ± 0.2 | 1.22 ± 0.15 | 0.183 ± 0.15 | 0.585 ± 0.21 | 0.145 ± 0.023 | 0.322 ± 0.11
24 | CC(C)(C)NC(=O)[C@H]1CC[C@H]2[C@@H]3CC[C@H]4NC(=O)C=C[C@]4(C)[C@H]3CC[C@]12C [Finasteride] | 1.25 ± 0.27 | 1.52 ± 0.18 | 0.557 ± 0.18 | 0.743 ± 0.047 | 1.1 ± 0.23 | 0.77 ± 0.057

— the supplement of paper PMC7238544
